# In the supplement of paper PMC8728848:
# The other results are listed elsewhere or left out.
# B1: MGL2 (Mus musculus), Q8JZN1 (protein)
# chain: MTMRYENFQNLEREEKNQEMRNGDKKGGMESPKFALIPSQSFLWRILSWTHLLLFSLGLSLLLLVVISVIGSQNSQLRRDLGTLRAILDNTTSKIKAEFQSLDSRADNFEKGISSLKVDVEDHRQELQAGRDLSQKVTSLESTLEKREQALKTDLSDLTDHVQQLETDLKALTCQLANLKNNGSEVACCPLHWTEHEGSCYWFSESEKSWPEADKYCRLENSHLVVVNSLEEQNFLQNRLANVLSWMGLTDQNGPWRWVDGTDFDKGFKNWRPLQPDNWHGHMLGGGEDCAHFSYDGRWNDDVCQRHYHWICETELGKASSAHSPQLIASVP
# Columns and labels:
# Test in all cases: glycan array binding signal (z-score within array); higher = stronger binding
# Conditions in all cases: glycan notation: IUPAC condensed, linker removed
# Gal(a1-3)Gal = target: Gal(a1-3)Gal
# Outline: (§1)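 Arrays were curated from the Consortium for Functional Glycomics database, 3228 in total, and kept only where the protein sequence was available. Binding is expressed as a within-array Z-score. This score was averaged across arrays of the same protein sequence at different concentrations or buffers and across linkers, and negative values can be read as non-binding.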
# Gal(a1-3)Gal(b1-3)GlcNAc = target: Gal(a1-3)Gal(b1-3)GlcNAc
# Outline: as §1
# [1] = target: Gal(a1-3)Gal(b1-3)GlcNAc(b1-2)Man
# Outline: as §1
# [2] = target: Gal(a1-3)Gal(b1-3)GlcNAc(b1-2)Man(a1-3)[Gal(a1-3)Gal(b1-3)GlcNAc(b1-2)Man(a1-6)]Man(b1-4)GlcNAc(b1-4)GlcNAc
# Outline: as §1
# [3] = target: Gal(a1-3)Gal(b1-3)GlcNAc(b1-3)GalNAc
# Outline: as §1
# [4] = target: Gal(a1-3)Gal(b1-3)GlcNAc(b1-6)GalNAc
# Outline: as §1
# [5] = target: Gal(a1-3)Gal(b1-3)[Fuc(a1-4)]GlcNAc(b1-2)Man(a1-3)[Gal(a1-3)Gal(b1-3)[Fuc(a1-4)]GlcNAc(b1-2)Man(a1-6)]Man(b1-4)GlcNAc(b1-4)GlcNAc
# Outline: as §1
# Gal(a1-3)Gal(b1-4)Glc = target: Gal(a1-3)Gal(b1-4)Glc
# Outline: as §1
# Gal(a1-3)Gal(b1-4)GlcNAc = target: Gal(a1-3)Gal(b1-4)GlcNAc
# Outline: as §1
# [6] = target: Gal(a1-3)Gal(b1-4)GlcNAc(b1-2)Man
# Outline: as §1
# [7] = target: Gal(a1-3)Gal(b1-4)GlcNAc(b1-2)Man(a1-3)[Gal(a1-3)Gal(b1-4)GlcNAc(b1-2)Man(a1-6)]Man(b1-4)GlcNAc(b1-4)GlcNAc
# Outline: as §1
# [8] = target: Gal(a1-3)Gal(b1-4)GlcNAc(b1-3)GalNAc
# Outline: as §1
# [9] = target: Gal(a1-3)Gal(b1-4)GlcNAc(b1-6)GalNAc
# Outline: as §1
# [10] = target: Gal(a1-3)Gal(b1-4)[Fuc(a1-3)]GlcNAc
# Outline: as §1
# [11] = target: Gal(a1-3)Gal(b1-4)[Fuc(a1-3)]GlcNAc(b1-2)Man(a1-3)[Gal(a1-3)Gal(b1-4)[Fuc(a1-3)]GlcNAc(b1-2)Man(a1-6)]Man(b1-4)GlcNAc(b1-4)GlcNAc
# Outline: as §1
# Gal(a1-3)GalNAc = target: Gal(a1-3)GalNAc
# Outline: as §1
# [12] = target: Gal(a1-3)[Gal(a1-4)]Gal(b1-4)GlcNAc
# Outline: as §1
# [13] = target: Gal(a1-4)Gal(b1-3)GlcNAc(b1-2)Man(a1-3)[Gal(a1-4)Gal(b1-3)GlcNAc(b1-2)Man(a1-6)]Man(b1-4)GlcNAc(b1-4)GlcNAc
# Outline: as §1
# Gal(a1-4)Gal(b1-4)Glc = target: Gal(a1-4)Gal(b1-4)Glc
# Outline: as §1
# Gal(a1-4)Gal(b1-4)GlcNAc = target: Gal(a1-4)Gal(b1-4)GlcNAc
# Outline: as §1
# [14] = target: Gal(a1-4)Gal(b1-4)GlcNAc(b1-2)Man(a1-3)[Gal(a1-4)Gal(b1-4)GlcNAc(b1-2)Man(a1-6)]Man(b1-4)GlcNAc(b1-4)GlcNAc
# Outline: as §1
# [15] = target: Gal(a1-4)Gal(b1-4)GlcNAc(b1-3)Gal(b1-4)Glc
# Outline: as §1
# Gal(a1-4)GlcNAc = target: Gal(a1-4)GlcNAc
# Outline: as §1
# Gal(a1-6)Glc = target: Gal(a1-6)Glc
# Outline: as §1
# Gal(b1-2)Gal = target: Gal(b1-2)Gal
# Outline: as §1
# Gal(b1-3)Gal = target: Gal(b1-3)Gal
# Outline: as §1
# Gal(b1-3)Gal(b1-4)GlcNAc = target: Gal(b1-3)Gal(b1-4)GlcNAc
# Outline: as §1
# Gal(b1-3)GalNAc = target: Gal(b1-3)GalNAc
# Outline: as §1
# [16] = target: Gal(b1-3)GalNAc(a1-3)[Fuc(a1-2)]Gal(b1-4)Glc
# Outline: as §1
# [17] = target: Gal(b1-3)GalNAc(a1-3)[Fuc(a1-2)]Gal(b1-4)GlcNAc
# Outline: as §1
# Gal(b1-3)GalNAc(b1-3)Gal = target: Gal(b1-3)GalNAc(b1-3)Gal
# Outline: as §1
# [18] = target: Gal(b1-3)GalNAc(b1-3)Gal(a1-4)Gal(b1-4)Glc
# Outline: as §1
# [19] = target: Gal(b1-3)GalNAc(b1-4)Gal(b1-4)Glc
# Outline: as §1
# [20] = target: Gal(b1-3)GalNAc(b1-4)[Neu5Ac(a2-3)]Gal(b1-4)Glc
# Outline: as §1
# Gal(b1-3)GlcNAc = target: Gal(b1-3)GlcNAc
# Outline: as §1
# [21] = target: Gal(b1-3)GlcNAc(a1-3)Gal(b1-4)GlcNAc
# Outline: as §1
# [22] = target: Gal(b1-3)GlcNAc(a1-6)Gal(b1-4)GlcNAc
# Outline: as §1
# Gal(b1-3)GlcNAc(b1-2)Man = target: Gal(b1-3)GlcNAc(b1-2)Man
# Outline: as §1
binder,measurement,setting,value
B1,glycan array binding signal (z-score),Gal(a1-3)Gal,-0.133
same,glycan array binding signal (z-score),Gal(a1-3)Gal(b1-3)GlcNAc,-0.249
same,glycan array binding signal (z-score),[1],-0.212
same,glycan array binding signal (z-score),[2],-0.113
same,glycan array binding signal (z-score),[3],-0.158
same,glycan array binding signal (z-score),[4],0.517
same,glycan array binding signal (z-score),[5],-0.193
same,glycan array binding signal (z-score),Gal(a1-3)Gal(b1-4)Glc,-0.21
same,glycan array binding signal (z-score),Gal(a1-3)Gal(b1-4)GlcNAc,-0.152
same,glycan array binding signal (z-score),[6],-0.03
same,glycan array binding signal (z-score),[7],-0.211
same,glycan array binding signal (z-score),[8],-0.192
same,glycan array binding signal (z-score),[9],0.838
same,glycan array binding signal (z-score),[10],-0.122
same,glycan array binding signal (z-score),[11],-0.009
same,glycan array binding signal (z-score),Gal(a1-3)GalNAc,-0.18
same,glycan array binding signal (z-score),[12],-0.187
same,glycan array binding signal (z-score),[13],-0.186
same,glycan array binding signal (z-score),Gal(a1-4)Gal(b1-4)Glc,-0.193
same,glycan array binding signal (z-score),Gal(a1-4)Gal(b1-4)GlcNAc,-0.137
same,glycan array binding signal (z-score),[14],-0.088
same,glycan array binding signal (z-score),[15],-0.1
same,glycan array binding signal (z-score),Gal(a1-4)GlcNAc,-0.186
same,glycan array binding signal (z-score),Gal(a1-6)Glc,-0.03
same,glycan array binding signal (z-score),Gal(b1-2)Gal,-0.147
same,glycan array binding signal (z-score),Gal(b1-3)Gal,-0.293
same,glycan array binding signal (z-score),Gal(b1-3)Gal(b1-4)GlcNAc,-0.137
same,glycan array binding signal (z-score),Gal(b1-3)GalNAc,-0.029
same,glycan array binding signal (z-score),[16],-0.217
same,glycan array binding signal (z-score),[17],-0.148
same,glycan array binding signal (z-score),Gal(b1-3)GalNAc(b1-3)Gal,0.153
same,glycan array binding signal (z-score),[18],0.04
same,glycan array binding signal (z-score),[19],-0.122
same,glycan array binding signal (z-score),[20],0.169
same,glycan array binding signal (z-score),Gal(b1-3)GlcNAc,-0.172
same,glycan array binding signal (z-score),[21],-0.311
same,glycan array binding signal (z-score),[22],0.067
same,glycan array binding signal (z-score),Gal(b1-3)GlcNAc(b1-2)Man,-0.185
